# Test results: PubChem BioAssay (Tox21)
# Inconclusive results, whose numbers are uncertain, are shown with a selection of clear calls. For part of these data: Potencies of inconclusive entries are left out as doubtful fits. Activity calls are given as the source filed them. Unless noted, the call rests on the fitted dose curve; in most records, active means well fitted curve in the direction sought with a large enough effect in the repeat runs; inconclusive means weak or mixed curves; inactive means no such curve, though single readings can be large; an effect the other way counts as inactive or inconclusive.
# Columns and labels:
# [1] = qHTS assay to identify small molecule that activate the aryl hydrocarbon receptor (AhR) signaling pathway - cell viability counter screen (AID 743086); further: nearly all actives have a fitted effect of over 45% in size; further: potency means the concentration at half of the fitted maximal effect;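 on viability change, negative = cytotoxic: HepG2 liver cells carrying the AhR DRE luciferase reporter; on the % scale 0 is the no-effect control and ±100 the full control effect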
# In short: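 HepG2-AhR-luc (HG2L7.5c1) cells, 4000/well, treated 24 h at 37 C with compound; viability measured as CellTiter-Fluor fluorescence after 30 min in the same wells as the luciferase read.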
# [2] = biological target: Peroxisome proliferator-activated receptor gamma (Homo sapiens) (UniProt P37231); assay: qHTS assay to identify small molecule antagonists of the peroxisome proliferator-activated receptor gamma (PPARg) signaling pathway (AID 743191; calls by dose curve; further: nearly all actives have a fitted effect of over 30% in size; further: potency means the concentration at half of the fitted maximal effect); settings: HEK293H PPARg-UAS-bla, beta-lactamase ratio, antagonist, 17 h; ratio activity, negative = inhibition: at 62.6 µM (top of the series) unless noted
# In short: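 GeneBLAzer PPARg UAS-bla HEK293H cells, 5 h post-plating, exposed to compounds 17 h at 37C. LiveBLAzer B/G FRET substrate added for 1 h at room temperature; beta-lactamase reporter read by fluorescence intensity.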
# [3] = qHTS assay to identify small molecule antagonists of the peroxisome proliferator-activated receptor gamma (PPARg) signaling pathway - cell viability counter screen (AID 743194); settings: PPARg-bla HEK293H viability, CellTiter-Glo luminescence, 17 h, co-treated with 50 nM rosiglitazone; activity change, negative = cytotoxicity: at 62.6 µM (top of the series) unless noted; further: potency means the concentration at half of the fitted maximal effect; nearly all actives have a fitted effect of over 55% in size
# In short: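 Cytotoxicity counter screen in PPARg-bla HEK293H cells, same wells as reporter assay. Compounds plus 50 nM rosiglitazone (final) for 17 h at 37 C, then viability read by CellTiter-Glo luminescence.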
# [4] = qHTS assay for small molecule agonists of the antioxidant response element (ARE) signaling pathway (AID 743202; active means well fitted activation curve with a large enough effect in the signal ratio in the repeat runs, not every such curve was filed as active; inconclusive means weak or mixed curves, or effect the other way; inactive means no such curve, though single readings can be large or run the other way; the % refers to the signal ratio; further: potency means the concentration at half of the fitted maximal effect); settings: HepG2 ARE-bla reporter, beta-lactamase FRET, 16 h; activation: at 73.3 µM (top of the series) unless noted
# In short: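 HepG2 ARE-bla reporter line, 2,000 cells/well; 5 h preincubation 37 C/5% CO2; compound (DMSO) 16 h 37 C; B/G FRET substrate 2 h RT; fluorescence intensity.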
# [5] = qHTS assay for small molecule activators of the heat shock response signaling pathway - cell viability counter screen (AID 743209); settings: HSE-bla HeLa viability, CellTiter-Glo luminescence, 5 h; activity change, negative = cytotoxicity: at 62.6 µM (top of the series) unless noted; further: on the % scale 0 is the no-effect control and ±100 the full control effect; nearly all actives have a fitted effect of over 50% in size
# In short: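 Cytotoxicity counter screen run in the same wells as the heat-shock bla reporter assay: HeLa HSE-bla cells, 5 h compound exposure at 37 C, viability read by CellTiter-Glo luminescence.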
# [6] = qHTS assay for small molecule activators of the heat shock response signaling pathway (AID 743210; active means well fitted activation curve with a large enough effect in the signal ratio in the repeat runs, with a control signal flat, not every such curve was filed as active; inconclusive means weak or mixed curves; the % refers to the signal ratio; further: potency means the concentration at half of the fitted maximal effect); settings: HeLa HSE-bla reporter, beta-lactamase ratio, 5 h; activation: at 62.6 µM (top of the series)
# In short: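 Beta-lactamase reporter read-out: FRET substrate fluorescence after 2.5 h at RT, following 5 h compound treatment at 37 C of HeLa cells carrying HSE-driven bla reporter; quantitative HTS format.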
# [7] = qHTS assay to identify small molecule agonists of the peroxisome proliferator-activated receptor delta (PPARd) signaling pathway - cell viability counter screen (AID 743211); settings: PPARd-bla HEK293H viability, CellTiter-Glo luminescence, 17 h; activity change, negative = cytotoxicity: at 62.6 µM (top of the series); further: potency means the concentration at half of the fitted maximal effect; nearly all actives have a fitted effect of over 55% in size
# In short: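 Viability was measured as CellTiter-Glo luminescence (30 min, room temperature) in the same wells as the beta-lactamase readout. GeneBLAzer PPARd UAS-bla HEK293H cells received compound after 5 h plating and were incubated 17 h at 37 C.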
# [8] = biological target: Peroxisome proliferator-activated receptor delta (Homo sapiens) (UniProt Q03181); assay: qHTS assay to identify small molecule agonists of the peroxisome proliferator-activated receptor delta (PPARd) signaling pathway (AID 743212; calls by dose curve; further: potency means the concentration at half of the fitted maximal effect); settings: HEK293H PPARd-UAS-bla, beta-lactamase FRET ratio, 17 h; activation: at 62.6 µM (top of the series) unless noted
# In short: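 Read-out: beta-lactamase FRET fluorescence after 2 h room-temperature incubation with LiveBLAzer B/G substrate. Cells were HEK293H carrying a UAS-bla reporter for PPARd, treated at 37 C with DMSO-dissolved compounds.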
# [9] = qHTS assay to identify small molecule antagonists of the peroxisome proliferator-activated receptor delta (PPARd) signaling pathway - cell viability counter screen (AID 743213); settings: PPARd-bla HEK293H viability, CellTiter-Glo luminescence, 17 h; viability change, negative = cytotoxic: at 62 µM (top of the series) unless noted; further: potency means the concentration at half of the fitted maximal effect; nearly all actives have a fitted effect of over 50% in size
# In short: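 CellTiter-Glo was added to PPARd-bla HEK293H wells following 17 h compound treatment in the presence of 300 nM L165041. Luminescence was recorded after 30 min at room temperature.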
# [10] = biological target: Peroxisome proliferator-activated receptor delta (Homo sapiens) (UniProt Q03181); assay: qHTS assay to identify small molecule antagonists of the peroxisome proliferator-activated receptor delta (PPARd) signaling pathway (AID 743215; active means well fitted inhibition curve with a large enough effect in the signal ratio in the repeat runs, not every such curve was filed as active; inconclusive means weak or mixed curves, or effect the other way; inactive means no such curve, though single readings can be large or run the other way; the % refers to the signal ratio;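 further: cells stimulated with agonist L165041 at 300 nM final during compound exposure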; further: potency means the concentration at half of the fitted maximal effect; on ratio activity, negative = inhibition: on the % scale 0 is the no-effect control and ±100 the full control effect); settings: HEK293H PPARd-UAS-bla, beta-lactamase FRET ratio, antagonist, 17 h; ratio activity, negative = inhibition: at 62 µM (top of the series) unless noted
# In short: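 Agonist L165041 (300 nM final) added with compound to PPARd-bla HEK293H UAS-bla reporter cells; 17 h incubation at 37 C. Read-out: LiveBLAzer FRET substrate, 2 h at room temperature, fluorescence intensity.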
# [11] = biological target: Bile acid receptor (Homo sapiens) (UniProt Q96RI1); assay: qHTS assay to identify small molecule antagonists of the farnesoid-X-receptor (FXR) signaling pathway (AID 743217; active means well fitted inhibition curve with a large enough effect in the signal ratio in the repeat runs, not every such curve was filed as active; inconclusive means weak or mixed curves, or effect the other way; inactive means no such curve, though single readings can be large or run the other way; the % refers to the signal ratio; further: potency means the concentration at half of the fitted maximal effect); settings: HEK293T FXR-UAS-bla, beta-lactamase ratio, CDCA-stimulated, 16 h; activity change, negative = inhibition: at 62.6 µM (top of the series) unless noted
# In short: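 Antagonist mode: chenodeoxycholic acid at 50 uM final stimulates a UAS-driven beta-lactamase reporter in HEK 293T FXR-bla cells during 16 h, 37C compound exposure. Read-out is FRET substrate fluorescence after 2 h at room temperature.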
# [12] = qHTS assay to identify small molecule agonists of the farnesoid-X-receptor (FXR) signaling pathway - cell viability counter screen (AID 743218); settings: FXR-bla HEK293T viability, CellTiter-Glo luminescence, 16 h; viability change, negative = cytotoxic: at 62.6 µM (top of the series) unless noted; further: nearly all actives have a fitted effect of over 45% in size; further: potency means the concentration at half of the fitted maximal effect; on viability change, negative = cytotoxic: on the % scale 0 is the no-effect control and ±100 the full control effect
# In short: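 Viability counter screen in the same wells: CellTiter-Glo luminescence, 30 min room-temperature incubation, measured after the beta-lactamase read. Cells were GeneBLAzer FXR-UAS-bla HEK 293T, compound-treated 16 h at 37C.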
# [13] = biological target: Bile acid receptor (Homo sapiens) (UniProt Q96RI1); assay: qHTS assay to identify small molecule agonists of the farnesoid-X-receptor (FXR) signaling pathway (AID 743220; active means well fitted activation curve with a large enough effect in the signal ratio in the repeat runs, not every such curve was filed as active; inconclusive means weak or mixed curves, or effect the other way; the % refers to the signal ratio; further: potency means the concentration at half of the fitted maximal effect); settings: HEK293T FXR-UAS-bla, beta-lactamase FRET ratio, 16 h; activation: at 62.6 µM (top of the series) unless noted
# In short: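 FXR-UAS-bla HEK 293T cells carrying a UAS-driven beta-lactamase reporter were plated for 5 h at 37C/5% CO2, then exposed to DMSO-dissolved Tox21 10K compounds for 16 h at 37C. A LiveBLAzer B/G FRET substrate was loaded for 2 h at room temperature before fluorescence reading.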
# [14] = qHTS assay to identify small molecule agonists of the vitamin D receptor (VDR) signaling pathway - cell viability counter screen (AID 743224); settings: VDR-bla HEK293T viability, CellTiter-Glo luminescence, 16 h; activity change, negative = cytotoxicity: at 62.6 µM (top of the series) unless noted; further: potency means the concentration at half of the fitted maximal effect; nearly all actives have a fitted effect of over 50% in size
# In short: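 Counter screen run in the same wells as the VDR-bla reporter assay: CellTiter-Glo luminescence, 30 min at room temperature, after 16 h compound treatment at 37C of cells pre-plated for 4 h.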
# [15] = biological target: Peroxisome proliferator-activated receptor gamma (Homo sapiens) (UniProt P37231); assay: qHTS assay to identify small molecule agonists of the peroxisome proliferator-activated receptor gamma (PPARg) signaling pathway (AID 743094; active means well fitted activation curve with a large enough effect in the signal ratio in the repeat runs, not every such curve was filed as active; inconclusive means weak or mixed curves, or effect the other way; inactive means no such curve, though single readings can be large or run the other way; the % refers to the signal ratio; further: potency means the concentration at half of the fitted maximal effect; on activation: on the % scale 0 is the no-effect control and ±100 the full control effect); settings: HEK293H PPARg-UAS-bla, beta-lactamase FRET ratio, 17 h; activation: at 57 µM (top of the series) unless noted
# In short: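 Agonist activity was taken from a beta-lactamase reporter (FRET substrate, 1 h at room temperature) in HEK293H cells carrying a PPARg UAS-bla construct. Compounds in DMSO were incubated 17 h at 37C after a 5 h cell pre-incubation.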
# [16] = biological target: Vitamin D3 receptor (Homo sapiens) (UniProt P11473); assay: qHTS assay to identify small molecule agonists of the vitamin D receptor (VDR) signaling pathway (AID 743222; calls by dose curve; further: potency means the concentration at half of the fitted maximal effect); settings: HEK293T VDR-UAS-bla, beta-lactamase FRET ratio, 16 h; activation: at 63.5 µM (top of the series) unless noted
# In short: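 Agonist mode, beta-lactamase reporter: fluorescence from LiveBLAzer B/G FRET substrate (2 h, room temperature) read after 16 h compound treatment at 37 C of VDR-bla cells, which were pre-incubated 4 h after seeding.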
# [17] = biological target: Vitamin D3 receptor (Homo sapiens) (UniProt P11473); assay: qHTS assay to identify small molecule antagonists of the vitamin D receptor (VDR) signaling pathway (AID 743223; active means well fitted inhibition curve with a large enough effect in the signal ratio in the repeat runs, not every such curve was filed as active; inconclusive means weak or mixed curves, or effect the other way; inactive means no such curve, though single readings can be large or run the other way; the % refers to the signal ratio; further: potency means the concentration at half of the fitted maximal effect); settings: VDR-UAS-bla HEK293T, beta-lactamase FRET ratio, 16 h; activity change, negative = inhibition: at 61 µM (top of the series) unless noted
# In short: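 Antagonist mode: compound added to VDR-bla cells alongside agonist 1alpha,25-dihydroxyvitamin D3 (3 nM final), incubation 16 h at 37C. Read-out is LiveBLAzer FRET fluorescence, 2 h at room temperature.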
# [18] = qHTS assay to identify small molecule antagonists of the vitamin D receptor (VDR) signaling pathway - cell viability counter screen (AID 743225); settings: VDR-bla HEK293T viability, CellTiter-Glo luminescence, 16 h; viability change, negative = cytotoxic: at 61 µM (top of the series) unless noted; further: potency means the concentration at half of the fitted maximal effect; nearly all actives have a fitted effect of over 50% in size
# In short: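 Cytotoxicity counter screen read by CellTiter-Glo luminescence (30 min, room temperature) in the same wells as the VDR-bla antagonist readout. HEK 293T VDR-UAS-bla cells had 16 h at 37C with compound and 3 nM (final) 1-alpha,25-dihydroxyvitamin D3, then 2 h with FRET substrate.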
# Tags describe the fitted curve by direction and shape or compound fluorescence and quenching.
# Chain of UniProt P11473 (P11473 whole entry, looked up): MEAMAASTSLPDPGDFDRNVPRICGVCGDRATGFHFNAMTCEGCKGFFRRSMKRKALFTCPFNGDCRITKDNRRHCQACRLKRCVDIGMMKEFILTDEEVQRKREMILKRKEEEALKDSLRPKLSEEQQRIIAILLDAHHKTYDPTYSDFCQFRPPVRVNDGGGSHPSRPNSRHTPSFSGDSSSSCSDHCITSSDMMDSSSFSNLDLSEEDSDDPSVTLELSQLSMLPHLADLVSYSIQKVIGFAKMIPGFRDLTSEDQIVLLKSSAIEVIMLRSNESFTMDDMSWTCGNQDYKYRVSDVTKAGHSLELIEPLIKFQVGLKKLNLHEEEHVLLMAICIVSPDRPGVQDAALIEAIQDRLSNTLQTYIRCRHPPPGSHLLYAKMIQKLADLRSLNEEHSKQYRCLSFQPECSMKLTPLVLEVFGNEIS
# Chain of UniProt Q03181 (Q03181 whole entry, looked up): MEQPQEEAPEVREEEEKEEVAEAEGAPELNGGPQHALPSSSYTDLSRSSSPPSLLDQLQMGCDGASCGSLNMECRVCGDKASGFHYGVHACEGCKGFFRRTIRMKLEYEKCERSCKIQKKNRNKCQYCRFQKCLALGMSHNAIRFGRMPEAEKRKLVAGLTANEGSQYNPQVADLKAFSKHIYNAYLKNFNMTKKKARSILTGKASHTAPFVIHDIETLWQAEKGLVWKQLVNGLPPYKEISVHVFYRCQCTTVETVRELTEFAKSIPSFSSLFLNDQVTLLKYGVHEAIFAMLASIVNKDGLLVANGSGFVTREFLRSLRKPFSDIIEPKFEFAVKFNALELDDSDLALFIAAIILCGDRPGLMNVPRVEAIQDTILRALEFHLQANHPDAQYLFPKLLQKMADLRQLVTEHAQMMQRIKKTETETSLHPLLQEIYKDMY
# Chain of UniProt P37231 (P37231 whole entry, looked up): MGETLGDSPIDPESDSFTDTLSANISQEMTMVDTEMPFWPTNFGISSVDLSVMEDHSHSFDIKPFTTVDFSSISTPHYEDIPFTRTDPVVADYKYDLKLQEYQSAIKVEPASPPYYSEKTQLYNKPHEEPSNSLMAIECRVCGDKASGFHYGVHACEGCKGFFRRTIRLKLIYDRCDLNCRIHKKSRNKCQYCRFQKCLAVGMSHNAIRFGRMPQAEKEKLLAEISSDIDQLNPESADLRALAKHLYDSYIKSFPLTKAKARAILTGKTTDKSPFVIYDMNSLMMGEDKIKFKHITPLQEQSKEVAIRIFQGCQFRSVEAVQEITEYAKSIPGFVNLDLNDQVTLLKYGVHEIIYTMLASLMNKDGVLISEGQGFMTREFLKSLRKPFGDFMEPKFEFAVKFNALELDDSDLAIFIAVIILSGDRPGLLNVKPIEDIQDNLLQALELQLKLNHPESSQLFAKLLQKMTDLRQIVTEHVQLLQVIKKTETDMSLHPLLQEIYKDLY
# Chain of UniProt Q96RI1 (Q96RI1 whole entry, looked up): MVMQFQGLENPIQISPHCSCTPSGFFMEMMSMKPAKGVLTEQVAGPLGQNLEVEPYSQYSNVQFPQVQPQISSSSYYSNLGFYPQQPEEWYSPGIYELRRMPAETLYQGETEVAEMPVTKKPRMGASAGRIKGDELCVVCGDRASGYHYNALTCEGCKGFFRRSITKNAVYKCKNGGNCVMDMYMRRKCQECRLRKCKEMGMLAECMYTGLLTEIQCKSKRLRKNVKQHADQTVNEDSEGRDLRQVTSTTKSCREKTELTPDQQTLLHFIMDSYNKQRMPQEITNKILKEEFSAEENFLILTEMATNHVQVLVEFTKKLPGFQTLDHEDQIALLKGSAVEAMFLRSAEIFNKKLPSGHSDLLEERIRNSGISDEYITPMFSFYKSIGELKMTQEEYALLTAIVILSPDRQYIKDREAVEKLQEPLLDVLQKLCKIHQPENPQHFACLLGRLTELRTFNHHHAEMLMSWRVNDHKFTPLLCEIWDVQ
smiles,measurement,setting,value
C=CCc1cc(S(=O)(=O)c2ccc(O)c(CC=C)c2)ccc1O,Potency,[1],inconclusive
same,Potency,[2],"inconclusive [fluorescent, partial curve]"
same,Potency,[3],inconclusive [cytotoxic]
same,Potency,[4],"inconclusive [rising, partial curve]"
same,Potency,[5],inactive
same,Potency,[6],inconclusive
same,Potency,[7],active: 43.6 µM
same,Potency,[8],"inconclusive [rising, single point]"
same,Potency,[9],"inconclusive [cytotoxic, partial curve, poor fit]"
same,"ratio activity, negative = inhibition",[10],inconclusive: -48.7%
same,Potency,[11],"inconclusive [rising, full curve, poor fit]"
same,"viability change, negative = cytotoxic",[12],inconclusive: -52.1% [cytotoxic]
same,Potency,[13],"inconclusive [activator, partial curve, poor fit]"
same,Potency,[14],"inconclusive [cytotoxic, single point]"
CN(C[C@@H](CC[N+]12CCC(C3CCCCC3)(CC1)CC2)c1ccc(Cl)c(Cl)c1)C(=O)c1cc(C(F)(F)F)cc(C(F)(F)F)c1,Potency,[1],active: 54.5 µM
same,Potency,[15],inconclusive [cytotoxic]
same,Potency,[2],"inconclusive [falling, partial curve]"
same,Potency,[3],active: 54.9 µM
same,Potency,[6],inconclusive [cytotoxic]
same,Potency,[7],active: 17.4 µM
same,Potency,[8],inconclusive
same,Potency,[9],active: 24.5 µM
same,Potency,[10],inconclusive [cytotoxic]
same,Potency,[11],"inconclusive [cytotoxic, partial curve]"
same,Potency,[12],active: 54.9 µM
same,Potency,[13],"inconclusive [cytotoxic, single point]"
same,Potency,[16],"inconclusive [cytotoxic, partial curve]"
same,Potency,[17],"inconclusive [inhibitor, partial curve, poor fit]"
same,Potency,[18],active: 27.5 µM
COC(=O)NCCC[Si](OC)(OC)OC,Potency,[1],inactive
same,Potency,[15],inactive
same,"ratio activity, negative = inhibition",[2],inconclusive: 1.99%
same,activation,[4],inconclusive: 26.8%
same,Potency,[6],inconclusive [activator]
same,Potency,[9],"inconclusive [cytotoxic, single point]"
same,Potency,[16],inconclusive
